According to PubChem BioAssay AID485344 (National Center for Advancing Translational Sciences (NCATS), 2010):
The campaign covered roughly 340,000 compounds. About 6,900 (2%) were called active. Rule as the data show it: active = inhibition above about 30%; inactive = below that, where a call was filed. This is a selection; strong and weak results do not stand in their true shares. Where no call is shown, the source filed none.
Also: 0% is about no effect.

Each compound was assayed against D(2) dopamine receptor (Homo sapiens) (UniProt P14416) (assay: HTS Assay for Allosteric Antagonists of the Human D2 Dopamine Receptor: Primary Screen for Antagonists). Conditions: HEK293 TREx D2 cells, calcium flux, dopamine EC80; at 10 µM; stronger effect = higher value.
Sequence of UniProt P14416 (P14416 whole entry, looked up): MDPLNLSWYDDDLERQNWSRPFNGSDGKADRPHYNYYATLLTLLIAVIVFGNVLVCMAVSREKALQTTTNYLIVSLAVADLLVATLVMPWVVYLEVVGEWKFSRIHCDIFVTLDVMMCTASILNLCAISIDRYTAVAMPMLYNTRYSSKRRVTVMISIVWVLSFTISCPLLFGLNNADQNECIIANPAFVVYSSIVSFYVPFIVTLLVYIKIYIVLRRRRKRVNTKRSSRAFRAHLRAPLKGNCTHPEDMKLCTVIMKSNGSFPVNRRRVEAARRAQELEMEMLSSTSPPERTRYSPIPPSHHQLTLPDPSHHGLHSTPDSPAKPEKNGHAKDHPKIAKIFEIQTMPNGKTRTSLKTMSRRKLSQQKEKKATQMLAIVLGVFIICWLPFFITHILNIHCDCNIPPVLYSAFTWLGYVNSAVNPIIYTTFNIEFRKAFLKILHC
In short: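 Calcium mobilization kinetics were recorded at 1 s intervals in tetracycline-induced HEK293 T-REx D2 cells, first for 180 s after compound addition and then 180 s after EC80 dopamine.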
COc1cc(NC(=O)C2CCN(c3cnccn3)CC2)cc(OC)c1 was tested, and the inhibition was -21.6%.
Work on O=C(Cn1c(=O)n(Cc2ccco2)c(=O)c2oc3ccccc3c21)Nc1ccccc1 yielded an inhibition of 16.9%.
CCC(=O)N1CCc2cc(S(=O)(=O)NC(Cc3ccccc3)C(=O)O)ccc21 (stereo not drawn) was tested, and the inhibition was -7.3%.
For O=C(CCN1CCOCC1)N/N=C/c1cc(Br)cc(Br)c1O, the inhibition was active: 35.6%.
O=C(CCCCCn1c(=O)c2sccc2n(Cc2ccccc2Cl)c1=O)NCc1ccc2c(c1)OCO2 was tested, and the inhibition was -5.56%.
In the case of COc1ccc(Nc2nc(N)nc(CSc3nnc(N)s3)n2)cc1, the inhibition is reported as active: 38.2%.
For COc1ccc(CCNC(=O)C(C)n2nc(C)c3sc4ccccc4c3c2=O)c(OC)c1 (stereo not drawn), the inhibition was 9.91%.
With Cc1ccc(S(=O)(=O)Nc2ccc3nc(-c4cccc(Cl)c4)oc3c2)cc1 the inhibition was -11.5%.
Work on Cc1ccc2oc(-c3ccc(Cl)c(NC(=O)c4cc5ccccc5o4)c3)nc2c1 yielded an inhibition of 1.79%.
For COc1ccc(Cl)cc1NC(=O)c1cnc2sc(N3CCOCC3)nn2c1=O, the inhibition was -23.7%.
In the case of Cc1ccc(CNC(=O)c2cnc3c(-c4ccc(F)cc4)c(C)nn3c2C)o1, the inhibition is reported as 4.15%.
Compound CCN(C(=O)C1CCN(S(=O)(=O)c2c(C)noc2/C=C/c2ccc(C)cc2)CC1)c1cccc(C)c1 has an inhibition of -15.3%.
Compound CCOc1ccc(-c2nonc2NC(=O)c2oc3ccc(CC)cc3c2C)cc1 has an inhibition of -6.29%.
CN1CCN(CCNC(=O)c2cnn(-c3ccc(Cl)cc3)c2C2CCN(C(=O)OC(C)(C)C)CC2)CC1 was tested, and the inhibition was -3.25%.
CCSc1nc2ccccc2c(OCc2ccccc2Cl)c1C(=O)OC gave an inhibition of 1.54%.
COc1ccc(NC(=O)c2nc(-c3ccc(C)cc3)n3c2CCCCC3)cc1 showed an inhibition of -14.1%.
For COc1cccc(C(=O)N(Cc2nc(-c3ccc(Cl)cc3)no2)C(C)C)c1OC, the inhibition was -16.5%.
In the case of COc1ccc(Oc2nc3c(c(=O)n(Cc4ccc(Br)cc4)c(=O)n3C)n2C)cc1, the inhibition is reported as 3%.
COc1ccc(-n2ccnc(NCCc3ccccc3)c2=O)cc1OC was tested, and the inhibition was -0.565%.
O=C(c1ccc(F)cc1)n1nc(-c2cccnc2)nc1NCc1ccccc1 was tested, and the inhibition was -12.5%.
Cc1nc2nc(CNC(=O)c3cccc(F)c3)nn2c(C)c1CCC(=O)Nc1cccc(Cl)c1 was tested, and the inhibition was 1.24%.
With Cc1nn(C(C)C(=O)Nc2ccccc2C(F)(F)F)c(=O)c2c1sc1ccccc12 (stereo not drawn) the inhibition was 4.99%.
Compound CC(C)(C)c1ccc(C(=O)Nc2c(C(=O)c3ccc(F)cc3)oc3ccccc23)cc1 has an inhibition of -3.08%.
For COc1ccccc1CNC(=O)COCc1cc(-c2cccs2)on1, the inhibition was -0.431%.
Cc1ccc(N(CC(C)C)S(=O)(=O)c2nnc(NC(=O)C(C)C)s2)cc1 was tested, and the inhibition was 14.5%.
Fc1ccc(Nc2nc3ccccc3n3cnnc23)c(F)c1 showed an inhibition of -16.9%.
In the case of CCOc1ccc(C(=O)Nc2cc3c(cc2N2CCCC2)n(C)c(=O)c(=O)n3C)cc1OCC, the inhibition is reported as -2.42%.
Compound CSc1ccc(CCNC(=O)CCCn2c(=O)c3cccn3c3ccccc32)cc1 has an inhibition of 7.26%.
With CSc1ncc2c(n1)-c1ccccc1N(Cc1ccccc1)S2(=O)=O the inhibition was 16.7%.
Compound Cc1ccc2[nH]c3c(=O)n(CC(=O)Nc4ccc(Br)cc4C)ncc3c2c1 has an inhibition of -17%.
For O=C1c2[nH]nc(-c3ccc(F)cc3)c2C(c2ccccc2F)N1c1ccccc1 (stereo not drawn), the inhibition was -1.88%.
O=C(c1cc(F)ccc1F)C1CCCN(C(=O)CCc2cnccn2)C1 (stereo not drawn) was tested, and the inhibition was active: 37.9%.
O=C(NCC1CCN(Cc2ccccc2F)CC1)Nc1ccc(F)c(Cl)c1 was tested, and the inhibition was -11.5%.
Compound CCCOc1ccc(C(=O)Nc2cc3c(cc2N2CCCCC2)n(C)c(=O)n3C)cc1 has an inhibition of 10.7%.
With CC(C)c1ccc(N(CC(=O)O)S(=O)(=O)c2ccc3[nH]c(=O)c(=O)[nH]c3c2)cc1 the inhibition was 13.7%.
COc1ccc(Br)cc1CNC(=O)CN1C(=O)c2cccnc2Oc2ccc(C)cc21 showed an inhibition of -24.3%.
With Cc1ccc2oc(C(=O)Nc3ccc(S(=O)(=O)Nc4nccc(C)n4)cc3)cc(=O)c2c1 the inhibition was 7.84%.
For Cc1ccc(S(=O)(=O)Cc2nc(-c3ccc(C(=O)NCCCOC(C)C)cc3)oc2C)cc1, the inhibition was -0.865%.
Cc1ccc2ncc3c(-c4ccc(F)cc4)nn(CC(=O)Nc4ccccc4C)c3c2c1 showed an inhibition of 15.9%.
Work on Cc1ccccc1NC(=O)/C(C#N)=C/c1ccc(Cl)cc1Cl yielded an inhibition of 2.57%.
In the case of CN(c1ccc(C(=O)N2CCN(Cc3ccccc3)CC2)cc1)S(=O)(=O)c1ccccc1, the inhibition is reported as active: 60.7%.
With CCc1ccc(NCc2cc3cc4c(cc3n(CC(=O)Nc3ccccc3C)c2=O)OCCO4)cc1 the inhibition was 7.2%.
In the case of Cc1cc(C)c(S(=O)(=O)N2CCCC2=O)c(C)c1N(C)S(C)(=O)=O, the inhibition is reported as active: 37.8%.
CCOC(=O)c1ccc(NC(=O)CC(=O)Nc2ccc3nc4n(c(=O)c3c2)CCCCC4)cc1 was tested, and the inhibition was 1.23%.
With Cc1nn2c(C)c(C(=O)NCCc3ccccc3)cnc2c1-c1ccccc1 the inhibition was 21.1%.
Work on COc1ccc(NC(=O)C2CCCN(S(=O)(=O)c3c(C)[nH]c(=O)[nH]c3=O)C2)c(OC)c1 (stereo not drawn) yielded an inhibition of -17.1%.
For O=C(NCc1ccc(F)cc1)C(=O)NCC(c1ccc2c(c1)OCO2)N1CCOCC1 (stereo not drawn), the inhibition was 2.75%.
Compound Cc1cccc(-c2nc3nc(C)cc(NC(C)c4ccccc4)n3n2)c1 (stereo not drawn) has an inhibition of -6.23%.
